# Test results reported in publication PMC4336329 (PLoS ONE, 2015).
# Out of some 310,000 compounds screened, about 14,000 (4.5%) showed an effect of 50% or more. Effects have a minus sign here. This is one part of the list.
# Target: human ether-à-go-go-related gene (hERG) potassium channel (human, UniProt Q12809)
# Experiment: primary screen, population patch clamp on CHO cells stably expressing hERG
# 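Further: peak tail current of the secondary pulse compared with the same well before compound.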
# Chain of human ether-à-go-go-related gene (hERG) potassium channel (Q12809 whole entry, looked up): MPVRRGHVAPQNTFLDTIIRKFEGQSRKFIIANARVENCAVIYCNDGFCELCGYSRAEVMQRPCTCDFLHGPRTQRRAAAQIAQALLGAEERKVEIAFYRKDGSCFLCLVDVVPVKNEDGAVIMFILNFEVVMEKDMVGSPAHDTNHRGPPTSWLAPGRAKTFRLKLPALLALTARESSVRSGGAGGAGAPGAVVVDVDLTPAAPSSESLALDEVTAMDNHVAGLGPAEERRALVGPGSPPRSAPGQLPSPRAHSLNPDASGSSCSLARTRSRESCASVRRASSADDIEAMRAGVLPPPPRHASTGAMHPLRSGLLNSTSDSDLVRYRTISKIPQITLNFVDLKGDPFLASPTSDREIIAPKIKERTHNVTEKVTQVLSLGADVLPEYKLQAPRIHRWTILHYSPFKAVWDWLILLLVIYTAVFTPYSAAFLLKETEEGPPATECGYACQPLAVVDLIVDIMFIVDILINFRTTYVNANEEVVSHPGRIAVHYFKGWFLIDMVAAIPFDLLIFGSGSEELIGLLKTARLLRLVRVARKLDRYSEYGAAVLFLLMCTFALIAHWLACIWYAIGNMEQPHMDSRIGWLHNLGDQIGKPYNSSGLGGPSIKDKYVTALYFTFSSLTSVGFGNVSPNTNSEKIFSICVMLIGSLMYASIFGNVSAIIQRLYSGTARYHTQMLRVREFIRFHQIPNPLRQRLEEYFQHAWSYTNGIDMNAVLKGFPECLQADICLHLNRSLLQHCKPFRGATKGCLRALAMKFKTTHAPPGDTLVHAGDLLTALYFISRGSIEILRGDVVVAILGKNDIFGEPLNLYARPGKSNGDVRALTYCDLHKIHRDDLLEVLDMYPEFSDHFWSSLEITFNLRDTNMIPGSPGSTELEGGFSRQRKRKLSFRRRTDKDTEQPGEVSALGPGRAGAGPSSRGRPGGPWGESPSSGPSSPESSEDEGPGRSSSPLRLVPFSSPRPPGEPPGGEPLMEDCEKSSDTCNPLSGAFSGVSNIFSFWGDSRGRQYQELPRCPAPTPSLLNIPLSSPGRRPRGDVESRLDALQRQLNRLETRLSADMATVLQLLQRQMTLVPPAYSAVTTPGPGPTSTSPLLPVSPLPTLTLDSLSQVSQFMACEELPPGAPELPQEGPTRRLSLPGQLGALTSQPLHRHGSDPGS
row,SMILES,"hERG current change (%, negative = inhibition) at 10uM [%]"
1,CCN=c1sc(C(=O)Nc2ccccc2)c(C)n1CC,-17.4
2,Cc1onc(-c2ccccc2Cl)c1C(=O)NC(=S)NCCc1ccccc1,1.29
3,O=C(CSC1=NS(=O)(=O)c2ccccc2N1)c1ccccc1,-8.85
4,Nc1nc(Nc2ccccc2Br)nc(C(F)(F)F)n1,10.9
5,CCO[C@H]1OC(C(=O)N2CCN(Cc3ccc4c(c3)OCO4)CC2)=C[C@@H](c2cn(C(C)=O)c3ccccc23)[C@@H]1CCCO,-44.8
6,CCc1cccc(C)c1NC(=S)N(Cc1cccnc1)Cc1ccco1,-15.5
7,C=CCc1c(C)nc(SCC(N)=O)[nH]c1=O,9.73
8,CCOC(=O)c1cn(CC(=O)Nc2ccc3c(c2)OCCO3)nn1,-2.39
9,COc1ccc(OC)c(S(=O)(=O)N2CCN(C(=O)c3cc(C4CC4)nn3-c3ccccc3)CC2)c1,-11.1
10,Cc1c(OCC(=O)NCc2ccncc2)ccc2c3c(c(=O)oc12)CCCC3,0.274
11,C/C(Cc1ccccc1)=N\NC(=O)CNC(=O)c1ccccc1O,-7.74
12,COc1cc(C)c(Cl)cc1S(=O)(=O)NCCCN1CCOCC1,-7.72
13,CC(=O)N(C(C)=O)c1cccc2c(N(C(C)=O)C(C)=O)cccc12,15.8
14,Cc1n[nH]c(=O)n1-c1ccc(OCc2ccccc2)cc1,12.6
15,CCOc1ccccc1NC(=O)NC1(C(=O)NCc2cccnc2)CCCCC1,14.9
16,Cc1cc(C)c2nc(NC(=O)c3ccc4c(c3)OCO4)sc2c1,-1.07
17,CCOC(=O)c1[nH]c(C)c(C(=O)OCC(=O)N2CC(=O)Nc3ccccc32)c1C,22.2
18,Cc1nc(-c2ccc(Cl)cc2)sc1C1(C)CC(c2cccc(Cl)c2)=NO1 (stereo not drawn),6.2
19,CC(C)C[C@H](NC(=O)N1CC(=O)Nc2ccccc21)C(=O)N1CCC[C@H]1C(=O)O,14.8
20,COc1ccccc1C(CNC(=O)CNC(=O)c1ccccc1Cl)N1CCCC1 (stereo not drawn),5.83
21,O=S(=O)(NCc1ccc(F)cc1)c1ccc2c(c1)OCCO2,-9.09
22,O=C(Cc1cccs1)NCCn1ccc2ccccc21,-6.95

row,SMILES,"hERG current change (%, negative = inhibition) at 10uM [%]"
1,CCC(Oc1ccccc1)C(=O)Nc1ccc(-c2nnc(-c3ccco3)o2)cc1 (stereo not drawn),-38.7
2,C/C(=N\NC(=O)C(N)=O)c1ccc(OC(F)F)cc1,5.59
3,CC(Oc1ccccc1F)C(=O)/C=C/N(C)C (stereo not drawn),24.6
4,COc1cc2c(cc1OC)C(c1ccccc1O)N(C1CC(=O)N(c3ccccc3)C1=O)CC2 (stereo not drawn),-6.74
5,CCOP(=O)(OCC)C(c1ccccc1)N(C)C=O (stereo not drawn),-8.77
6,O=S(=O)(NCC(c1ccccc1)N1CCNCC1)c1ccc(Cl)cc1 (stereo not drawn),-28.6
7,CN(CCc1ccccn1)S(=O)(=O)c1ccc2c3c(cccc13)C(=O)N2,-16.5
8,Cc1ccc(S(=O)(=O)NC(CC(C)C)C(=O)N2CCOCCOCCOCC2)cc1 (stereo not drawn),24.8
9,O=C(OCCc1cc2ccccc2c(=O)o1)c1ccc2c(c1)OCO2,1.97
10,O=C(NCc1ccccc1)c1cccn(Cc2ccccc2)c1=O,-29.3
11,CCCN1CN=C(NS(=O)(=O)c2ccc(C)cc2)NC1,16.7
12,Cc1ccc(N2C(=O)Nc3ccccc3S2(=O)=O)cc1Cl,7.22
13,CC(C)(C)Cc1nnc(NC(=O)CSc2ccccc2)s1,15.9
14,CCCNC(=O)c1cc2ccccc2c(=O)o1,10.8
15,COC(=O)[C@H](Cc1ccccc1)NS(=O)(=O)N[C@@H](Cc1ccccc1)C(=O)OC,0.0712
16,COc1ccc2oc(=N)c(C(=O)Nc3ccc(C)cc3)cc2c1,24.1
17,Cc1cccc(NC(=O)CN2CCN(CC(=O)NCc3ccc(Cl)cc3Cl)CC2)c1C,-18.2
18,Cc1ccc(C(=O)O/N=C(\c2ccccc2)c2ccncc2)cc1,-3.92
19,Oc1c(C(c2cccs2)N2CCC3(CC2)OCCO3)sc2ncnn12 (stereo not drawn),13.9
20,Cc1c(C(=N)C(C#N)C#N)c(=N)oc2c1ccc1ccccc12,15.3
21,COc1ncnc2c1oc1nc(C)c3c(c12)CC(C)(C)OC3,-1.6
22,Cc1ccc(N(CC(O)Cn2c3ccccc3c3ccccc32)S(C)(=O)=O)c(C)c1 (stereo not drawn),-5.76

row,SMILES,"hERG current change (%, negative = inhibition) at 10uM [%]"
1,CCCCCNC(=O)C(=O)C1C(=O)Nc2ccccc21 (stereo not drawn),22.2
2,O=C(Cc1ccccc1[N+](=O)[O-])Nc1ccccc1C(=O)N1CCOCC1,15.1
3,CCN(c1ccccc1)S(=O)(=O)c1cc(OC)ccc1OC,1.56
4,COc1ccccc1/C=C/C(=O)NC(=S)N1CCN(C)CC1,6.42
5,COc1ccccc1OCC(=O)NNC(=O)CSC(=S)N1CCCC1,4.5
6,Cn1c(SCc2ccccc2)nnc1-c1ccco1,5.2
7,CCN(Cc1ccncc1)Cc1nc(CC2CC2)no1,16.3
8,O=C(CSc1ccc(-c2cccc([N+](=O)[O-])c2)nn1)N1CCCCCC1,-26.3
9,COc1ccc(C)cc1NC(=O)c1ccc(NS(=O)(=O)c2cccc3cccnc23)cc1,4.44
10,Nc1cc(N)nc(SCC(=O)NCC2CCCO2)n1 (stereo not drawn),-4.72
11,O=[N+]([O-])c1ccc(S(=O)(=O)c2cccc(C(F)(F)F)c2)nc1,9.77
12,CCOc1ccc(CCN2C(=O)C3C4C=CC(C4)C3C2=O)cc1OCC (stereo not drawn),3.14
13,O=C(C1=C[C@@H](c2ccc(Br)cc2)C[C@@H](OCCCCO)O1)N1CCN(Cc2ccc3c(c2)OCO3)CC1,-55.3
14,COc1ccc(-c2csc(C3=C(O)CN(CCCN4CCCC4=O)C3=N)n2)cc1OC,5.44
15,Cc1ccc(C(=O)c2sc3nsc(C)c3c2N)cc1,11
16,COc1ccc(OCC(O)COc2ccc(OC)cc2)cc1,-6.73
17,O=C(Nc1ccnn1C1CCN(C(=O)c2cccc(Cl)c2)CC1)C1CCOC1 (stereo not drawn),14.5
18,Cc1ccc(S(=O)(=O)N2CCOCC2)cc1NC(=O)COC(=O)c1cc(=O)c2ccccc2o1,3.42
19,N#Cc1c(N)nc2c(c1-c1ccc3c(c1)OCO3)CCc1ccccc1-2,29
20,COc1ccccc1C1=CC(=O)C[C@H](c2ccc(Cl)cc2)C1,0.852
21,Cc1cc(=O)oc2cc(NC(=S)NCc3cccnc3)ccc12,18.9
22,O=C(NC1CCCCC1)C(c1cccnc1)N(C(=O)CCl)c1cccc(Cl)c1 (stereo not drawn),-14.2

row,SMILES,"hERG current change (%, negative = inhibition) at 10uM [%]"
1,COc1cc(/C=N/NC(=O)CCN2CCN(C(c3ccccc3)c3ccccc3)CC2)ccc1O,-78.7
2,O=C(CCc1ccccc1)NC(=S)Nc1cccc(Br)c1,14.3
3,c1ccc(-n2nnc3cnccc32)cc1,12
4,O=C(O)C(=O)O.O=C(c1ccco1)N1CCN(Cc2cccc([N+](=O)[O-])c2)CC1,-20.3
5,COc1ccc(NC(=O)CN(C)C(=O)c2c(-c3ccccc3Cl)noc2C)cc1,3.2
6,O=C(Nc1cccc(S(=O)(=O)N2CCCCC2)c1)c1cc([N+](=O)[O-])ccc1N1CCOCC1,-64.2
7,Cc1ccc(C(=O)NC(=S)N2CCN(c3ccc([N+](=O)[O-])cc3)CC2)cc1,-15.6
8,COc1ccc(-c2cc(C(=O)NCc3ccco3)c3ccccc3n2)cc1OC,-14.7
9,COc1ccc(NC(=S)N(Cc2ccccn2)Cc2ccccc2Cl)cc1,-11.5
10,O=C1CCCC2=C1C(c1ccsc1)CC(=O)N2c1ccccc1 (stereo not drawn),-9.24
11,COc1cc(S(=O)(=O)Nc2c(C)nn(C)c2C)ccc1NC(C)=O,0.368
12,Cc1nc2ccc([N+](=O)[O-])cc2c(=O)n1Cc1cccc(Br)c1,-4.24
13,CCOC(=O)C1(CC2CC2)CCN(C(=O)c2ocnc2C)CC1,7.25
14,CCS(=O)(=O)Nc1cc(OC)c(OC)cc1Cc1nccc2cc(OC)c(OC)cc12,-9.09
15,N#CCC(=O)Nc1ccc(C(=O)OC(C(=O)Nc2cc(C(F)(F)F)ccc2Cl)c2ccccc2)cc1 (stereo not drawn),-7.88
16,Cc1ccc(-n2nnnc2SCC(=O)NNC(=O)c2ccco2)cc1C,24.3
17,Cc1nc2c(ccc3nc(NC(=O)Cc4cccc5ccccc45)sc32)s1,21
18,O=C(Nc1ccc2[nH]ncc2c1)c1ccccc1Cl,22.1
19,CCCC(=O)Nc1cc2c(cc1C(=O)c1ccccc1)OCCO2,-12.2
20,CC(=O)Nc1cccc2c1C(=O)N(c1ccccc1C)C2=O,16.2
21,COc1ccc(C(=O)COc2ccc(F)cc2)c(O)c1,-10.4
